# Test results published in PubChem BioAssay AID504832 (National Center for Advancing Translational Sciences (NCATS), 2011).
# The whole screen tested about 310,000 compounds, of which about 18,000 (5.8%) were called active. The shares of active, inactive and inconclusive entries below differ from those in the screen. Calls come from the whole dose curve; as a rule, active = well fitted inhibition curve with a large enough effect; inconclusive = small, poorly fitted or top-dose-only effect, or another doubt; inactive = no such curve, though single readings can be large or run the other way. Potencies of inconclusive entries are left out as doubtful fits.
# Test: Primary qHTS for delayed death inhibitors of the malarial parasite plastid, 48 hour incubation
# Conditions: P. falciparum luciferase growth in erythrocytes; series mostly up to 28.7 µM; activity change, negative = inhibition: at the top concentration
# Outline: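 A one-generation exposure of luciferase-tagged malaria parasites in RPMI 1640/Albumax erythrocyte culture, 37 C and 5% CO2. Inhibition is inferred from decreased luminescence after adding detection reagent.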
# % is set by controls: 0 for no effect and ±100 for the full control effect; potency is the fitted concentration of half-maximal effect; tags give direction and shape of the fitted curve.
Compound,Potency,"activity change, negative = inhibition"
O=C1CCCC2=C1C(Cc1ccccc1)C1=C(CCCC1=O)O2,"inconclusive [inhibitor, full curve, poor fit]",–
CCN1C(=O)/C(=C2\SC(=S)N(CCCOC)C2=O)c2ccccc21,"inconclusive [inhibitor, partial curve, poor fit]",–
CCC(=O)Nc1nn(CC(C)C)c2nc3ccc(C)cc3cc12,"inconclusive [inhibitor, partial curve]",–
CN1C(=O)C(Cc2ccc(OCc3ccccc3)cc2)C(=O)N(C)C1=O,–,inactive: 9.2% [at 0.00184 µM]
O=S(=O)(c1ccccc1)N1CCN(c2ccccc2)CC1,–,inactive: -15%
Cc1ccc(/C=N/NC(=O)c2cccnc2)o1,–,inactive: -6.57%
O=C1c2cccc(OCC(=O)N3CCCc4ccccc43)c2CCN1Cc1cccnc1,"inconclusive [inhibitor, single point]",–
COc1cccc(NC(=O)C(OC(=O)c2ccccc2NS(=O)(=O)c2cccs2)c2ccccc2)c1 (centres undefined),"inconclusive [inhibitor, single point]",–
c1ccc(-c2nc(NCCCn3ccnc3)c3oc4ccccc4c3n2)cc1,active: 3.29 µM,–
O=C(CSc1nc(-c2ccccc2)cc(=O)[nH]1)N1CCc2ccccc21,"inconclusive [inhibitor, partial curve, poor fit]",–
Cc1cccc(-n2cnc(C(=O)NNC(=S)Nc3ccccc3)c2)n1,"inconclusive [inhibitor, single point]",–
COc1cccc(-n2c(SCC(=O)Nc3cc(C)on3)nc3ccccc3c2=O)c1,"inconclusive [inhibitor, partial curve, poor fit]",–
CCN(CC)C(=O)c1ccc(NS(=O)(=O)c2ccc3[nH]c(=O)[nH]c3c2)cc1,active: 11.7 µM,–
O=C(Nc1ccc(S(=O)(=O)Nc2ncccn2)cc1)C1CC(=O)N(c2ccc(Cl)cc2)C1 (centres undefined),–,inactive: 23.1%
O=C(Nc1cccc(O)c1)c1ccc(S(=O)(=O)N2CCCCCC2)cc1,"inconclusive [inhibitor, single point]",–
COc1ccc(CC(=O)N2CC3(C)CC2CC(C)(C)C3)cc1OC (centres undefined),"inconclusive [inhibitor, partial curve, poor fit]",–
C=CCC(C#N)(c1ccc(OC)c(OC)c1)c1cnccn1 (centres undefined),active: 13.1 µM,–
Cc1ccc(C(=O)NCCc2nnc3c(C(F)(F)F)cc(Cl)cn23)o1,–,inactive: 24.2%
O=C(Oc1cccnc1)c1ccco1,–,inactive: 18.1%
COC1=C(Nc2ccc(OC)cc2)C(=O)c2ccccc2C1=O,active: 2.33 µM,–
CCCC(=O)Nc1nnc(SCC(=O)N2C(C)CCCC2C)s1 (centres undefined),"inconclusive [inhibitor, partial curve, poor fit]",–
Nc1ncnc(NCc2ccccc2)c1[N+](=O)[O-],–,inactive: 20.8%

Compound,Potency,"activity change, negative = inhibition"
CCCn1cc(NC(=O)C2CC(c3cccc(Br)c3)=NO2)cn1 (centres undefined),"inconclusive [inhibitor, full curve, poor fit]",–
COc1cccc(Nc2ncnc3ccccc23)c1,–,inactive: 217%
CCc1ccc(NC(=O)CSC2=C(C#N)C(c3ccco3)C3=C(CCCC3=O)N2)cc1 (centres undefined),"inconclusive [inhibitor, partial curve]",–
COc1ccc(-c2cc(C(F)(F)F)c3c(n2)sc2c(O)cc(=O)[nH]c23)c(OC)c1,"inconclusive [inhibitor, partial curve]",–
COc1cccc(NC(=S)N2CCN(Cc3ccccc3)CC2)c1,–,inactive: -9.02%
COc1cc(OC)c2c(-c3ccccc3)cc(=O)oc2c1C(CC(=O)N1CCN(c2ccccc2)CC1)c1ccc2c(c1)OCO2 (centres undefined),"inconclusive [inhibitor, single point]",–
O=C(Nc1ccccc1Cl)c1ccc([N+](=O)[O-])o1,–,inactive: -29.8%
S=C(Nc1ccc(Nc2ccccc2)cc1)Nc1ccccn1,"inconclusive [inhibitor, single point]",–
CCOc1ccc(N(CC(=O)Nc2c(C)cccc2C)S(=O)(=O)c2c(C)[nH]c(=O)[nH]c2=O)cc1,"inconclusive [inhibitor, partial curve, poor fit]",–
Cc1nc(CNS(=O)(=O)c2cccc(F)c2)cs1,"inconclusive [inhibitor, partial curve]",–
COC(=O)C1=C(O)C(C(=O)OC)C(c2ccc(C)cc2)C(C#N)(C#N)C1c1ccc(C)cc1 (centres undefined),"inconclusive [inhibitor, single point]",–
CCN(CC)S(=O)(=O)c1ccc(-c2nnc(SCC(=O)Nc3ccc4c(c3)OCO4)o2)cc1,"inconclusive [inhibitor, single point]",–
N#C/C(=C\c1cn(Cc2ccccc2)c2ccccc12)C(=O)NCc1ccco1,"inconclusive [inhibitor, single point]",–
O=c1ccc2cc3c4c(c2o1)CCCN4CCC3,"inconclusive [inhibitor, partial curve, poor fit]",–
Cc1cc(-c2n[nH]c(=S)n2/N=C/c2ccc(C)o2)n[nH]1,–,inactive: -1.58%
O=C(CN1CCOCC1)NNc1nc(-c2ccccc2)c2cc(Br)ccc2n1,"inconclusive [inhibitor, partial curve]",–
CN1CCN(c2ccc(S(=O)(=O)N3CCOCC3)cc2NC(=O)Cc2ccccc2F)CC1,–,inactive: -35.5%
CCn1ccnc1CN(C)C(=O)CCc1nnc(CCCc2ccccc2)o1,"inconclusive [inhibitor, partial curve, poor fit]",–
O=C(NCCc1ccc(Cl)cc1)c1cc(S(=O)(=O)N2CCCCC2)c[nH]1,"inconclusive [inhibitor, partial curve]",–
CCN(CC)CCn1c2c(c(SCC(=O)Nc3nc4ccc(C)cc4s3)nc1=O)CCC2,"inconclusive [inhibitor, full curve]",–
COc1cccc(-c2nnc3sc(-c4ccccc4)nn23)c1,"inconclusive [inhibitor, single point]",–
Cc1ccc2[nH]c(C)c(CCNC(=O)C3CCCCC3C(=O)OCC(F)(F)F)c2c1 (centres undefined),"inconclusive [inhibitor, single point]",–
